According to article PMC9911399, “Two distinct binding modes provide the RNA-binding protein RbFox with extraordinary sequence specificity”:
Where a chain is given by its changes, count along the chain named. The list shows a part of the results.

B1: UACUUCA (DNA:RNA)
RNA: GGGAGACCGGAAUUCAGAUUGUCCUACUUCAUUAAAUCCCGUCGUAGCCACCA
DNA 1: CAATCTGAATTCCGGTCTCCC
DNA 2: TGGTGGCTACGACGGGATT
B2: AGUUUUU (DNA:RNA)
RNA: B1 RNA with U25A, A26G, C27U, C30U, A31U
DNA 1: CAATCTGAATTCCGGTCTCCC
DNA 2: TGGTGGCTACGACGGGATT
B3: GGAACAA (DNA:RNA)
RNA: B1 RNA with U25G, A26G, C27A, U28A, U29C, C30A
DNA 1: CAATCTGAATTCCGGTCTCCC
DNA 2: TGGTGGCTACGACGGGATT
B4: CAAAACG (DNA:RNA)
RNA: B1 RNA with U25C, C27A, U28A, U29A, A31G
DNA 1: CAATCTGAATTCCGGTCTCCC
DNA 2: TGGTGGCTACGACGGGATT
B5: AAGAUAU (DNA:RNA)
RNA: B1 RNA with U25A, C27G, U28A, C30A, A31U
DNA 1: CAATCTGAATTCCGGTCTCCC
DNA 2: TGGTGGCTACGACGGGATT
B6: UGUAGGA (DNA:RNA)
RNA: B1 RNA with A26G, C27U, U28A, U29G, C30G
DNA 1: CAATCTGAATTCCGGTCTCCC
DNA 2: TGGTGGCTACGACGGGATT
B7: UCAUCCC (DNA:RNA)
RNA: B1 RNA with A26C, C27A, U29C, A31C
DNA 1: CAATCTGAATTCCGGTCTCCC
DNA 2: TGGTGGCTACGACGGGATT
B8: UAAGUUG (DNA:RNA)
RNA: B1 RNA with C27A, U28G, C30U, A31G
DNA 1: CAATCTGAATTCCGGTCTCCC
DNA 2: TGGTGGCTACGACGGGATT
B9: CCCUGUA (DNA:RNA)
RNA: B1 RNA with U25C, A26C, U29G, C30U
DNA 1: CAATCTGAATTCCGGTCTCCC
DNA 2: TGGTGGCTACGACGGGATT
B10: GAGCCAU (DNA:RNA)
RNA: B1 RNA with U25G, C27G, U28C, U29C, C30A, A31U
DNA 1: CAATCTGAATTCCGGTCTCCC
DNA 2: TGGTGGCTACGACGGGATT
B11: CGGUAGA (DNA:RNA)
RNA: B1 RNA with U25C, A26G, C27G, U29A, C30G
DNA 1: CAATCTGAATTCCGGTCTCCC
DNA 2: TGGTGGCTACGACGGGATT
B12: AGGUUGC (DNA:RNA)
RNA: B1 RNA with U25A, A26G, C27G, C30G, A31C
DNA 1: CAATCTGAATTCCGGTCTCCC
DNA 2: TGGTGGCTACGACGGGATT
B13: AUGGGCG (DNA:RNA)
RNA: B1 RNA with U25A, A26U, C27G, U28G, U29G, A31G
DNA 1: CAATCTGAATTCCGGTCTCCC
DNA 2: TGGTGGCTACGACGGGATT
B14: GUAAGUG (DNA:RNA)
RNA: GGGAGACCGGAAUUCAGAUUGUCCGUAAGUGUUAAAUCCCGUCGUAGCCACCA
DNA 1: CAATCTGAATTCCGGTCTCCC
DNA 2: TGGTGGCTACGACGGGATT
B15: GGUCCCG (DNA:RNA)
RNA: B14 RNA with U26G, A27U, A28C, G29C, U30C
DNA 1: CAATCTGAATTCCGGTCTCCC
DNA 2: TGGTGGCTACGACGGGATT
B16: GUCUAAG (DNA:RNA)
RNA: B14 RNA with A27C, A28U, G29A, U30A
DNA 1: CAATCTGAATTCCGGTCTCCC
DNA 2: TGGTGGCTACGACGGGATT
B17: CUCUUGA (DNA:RNA)
RNA: B1 RNA with U25C, A26U, C30G
DNA 1: CAATCTGAATTCCGGTCTCCC
DNA 2: TGGTGGCTACGACGGGATT
B18: UGGCUAU (DNA:RNA)
RNA: B1 RNA with A26G, C27G, U28C, C30A, A31U
DNA 1: CAATCTGAATTCCGGTCTCCC
DNA 2: TGGTGGCTACGACGGGATT
B19: GAUAUCC (DNA:RNA)
RNA: B1 RNA with U25G, C27U, U28A, A31C
DNA 1: CAATCTGAATTCCGGTCTCCC
DNA 2: TGGTGGCTACGACGGGATT
B20: UGAUUGG (DNA:RNA)
RNA: B1 RNA with A26G, C27A, C30G, A31G
DNA 1: CAATCTGAATTCCGGTCTCCC
DNA 2: TGGTGGCTACGACGGGATT
B21: ACCGGAA (DNA:RNA)
RNA: B1 RNA with U25A, A26C, U28G, U29G, C30A
DNA 1: CAATCTGAATTCCGGTCTCCC
DNA 2: TGGTGGCTACGACGGGATT
B22: UGCUGGA (DNA:RNA)
RNA: B1 RNA with A26G, U29G, C30G
DNA 1: CAATCTGAATTCCGGTCTCCC
DNA 2: TGGTGGCTACGACGGGATT
B23: UUUAUUG (DNA:RNA)
RNA: B14 RNA with G25U, A27U, G29U
DNA 1: CAATCTGAATTCCGGTCTCCC
DNA 2: TGGTGGCTACGACGGGATT
B24: AUCACUG (DNA:RNA)
RNA: B14 RNA with G25A, A27C, G29C
DNA 1: CAATCTGAATTCCGGTCTCCC
DNA 2: TGGTGGCTACGACGGGATT
B25: ACCUUCG (DNA:RNA)
RNA: B1 RNA with U25A, A26C, A31G
DNA 1: CAATCTGAATTCCGGTCTCCC
DNA 2: TGGTGGCTACGACGGGATT
B26: CAGGCAC (DNA:RNA)
RNA: B1 RNA with U25C, C27G, U28G, U29C, C30A, A31C
DNA 1: CAATCTGAATTCCGGTCTCCC
DNA 2: TGGTGGCTACGACGGGATT
B27: AGCGUUU (DNA:RNA)
RNA: B1 RNA with U25A, A26G, U28G, C30U, A31U
DNA 1: CAATCTGAATTCCGGTCTCCC
DNA 2: TGGTGGCTACGACGGGATT
B28: UAAGACG (DNA:RNA)
RNA: B1 RNA with C27A, U28G, U29A, A31G
DNA 1: CAATCTGAATTCCGGTCTCCC
DNA 2: TGGTGGCTACGACGGGATT
B29: CAGCUAU (DNA:RNA)
RNA: B1 RNA with U25C, C27G, U28C, C30A, A31U
DNA 1: CAATCTGAATTCCGGTCTCCC
DNA 2: TGGTGGCTACGACGGGATT
B30: AUCACAG (DNA:RNA)
RNA: B14 RNA with G25A, A27C, G29C, U30A
DNA 1: CAATCTGAATTCCGGTCTCCC
DNA 2: TGGTGGCTACGACGGGATT
B31: UUAAGAU (DNA:RNA)
RNA: B14 RNA with G25U, U30A, G31U
DNA 1: CAATCTGAATTCCGGTCTCCC
DNA 2: TGGTGGCTACGACGGGATT

These binders were tested against T1, RBFOX1 RRM RbFoxmut (Fox-RRM*) (Homo sapiens, UniProt Q9NWB1 109-208, R118D;E147R;N151S;E152T) (assay: EMSA; HiTS-Eq, 1 nM pool, 10 min; buffer printed only for the single-RNA assays: 10 mM Tris pH 7.5, 150 mM NaCl, 3.4 mM EDTA, 0.001% NP-40, 30 C). Details: tags: His6 N-terminal (pET28a); label: 5' 32P.
T1 sequence: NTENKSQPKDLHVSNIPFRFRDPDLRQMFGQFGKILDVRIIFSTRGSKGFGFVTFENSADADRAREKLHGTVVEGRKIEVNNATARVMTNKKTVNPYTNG
Outline: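 Purified RbFox RRM, wild type or mutant, was incubated for 10 min in 50 µL with 1 nM of a 5′-radiolabelled RNA pool carrying 7 randomized nucleotides, whose flanks were annealed to DNA oligonucleotides, over a series of increasing protein concentrations. Unbound RNA was resolved on 8% native PAGE, cut out, reverse-transcribed, barcoded by PCR and sequenced on an Illumina HiSeq 2500. Relative association constants were derived from changes in read counts for each RNA species versus the control reaction and normalised to the cognate motif.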
B1 was tested, and the binding signal was 0.0921 KA relative to UGCAUGU. B2 was tested, and the binding signal was 0.102 KA relative to UGCAUGU. B3 was tested, and the binding signal was 0.0966 KA relative to UGCAUGU. In the case of B4, the binding signal is reported as 0.0837 KA relative to UGCAUGU. B5 was tested, and the binding signal was 0.106 KA relative to UGCAUGU. B6 was tested, and the binding signal was 0.0682 KA relative to UGCAUGU. With B7 the binding signal was 0.0352 KA relative to UGCAUGU. With B8 the binding signal was 0.141 KA relative to UGCAUGU. With B9 the binding signal was 0.201 KA relative to UGCAUGU. With B10 the binding signal was 0.0689 KA relative to UGCAUGU. For B11, the binding signal was 0.126 KA relative to UGCAUGU. For B12, the binding signal was 0.201 KA relative to UGCAUGU. For B13, the binding signal was 0.171 KA relative to UGCAUGU. For B14, the binding signal was 0.134 KA relative to UGCAUGU. For B15, the binding signal was 0.0821 KA relative to UGCAUGU. For B16, the binding signal was 0.114 KA relative to UGCAUGU. B17 was tested, and the binding signal was 0.107 KA relative to UGCAUGU. With B18 the binding signal was 0.0994 KA relative to UGCAUGU. B19 was tested, and the binding signal was 0.0909 KA relative to UGCAUGU. For B20, the binding signal was 0.163 KA relative to UGCAUGU. B21 was tested, and the binding signal was 0.0811 KA relative to UGCAUGU. With B22 the binding signal was 0.0859 KA relative to UGCAUGU. B23 was tested, and the binding signal was 0.136 KA relative to UGCAUGU. For B24, the binding signal was 0.116 KA relative to UGCAUGU. B25 was tested, and the binding signal was 0.102 KA relative to UGCAUGU. For B26, the binding signal was 0.102 KA relative to UGCAUGU. In the case of B27, the binding signal is reported as 0.108 KA relative to UGCAUGU. In the case of B28, the binding signal is reported as 0.0728 KA relative to UGCAUGU. With B29 the binding signal was 0.114 KA relative to UGCAUGU. B30 was tested, and the binding signal was 0.0938 KA relative to UGCAUGU. With B31 the binding signal was 0.0924 KA relative to UGCAUGU.
